Measured values from US20230391845A1, “GLP-1, GIP AND GLUCAGON RECEPTOR TRIPLE AGONISTS” (priority 2020, published 2023).
Part of at least one peptide drawing is inferred or uncertain, most often the ends. For some of these results: For at least one compound, name, drawing or mass did not settle the structure. *1 amine or outer side, *2 acyl side, *3 side chain or, on linkers, in order; H or OH if unused. Where a SMILES comes first, the peptide text is derived from it. Side-chain parts run from the residue outwards. [ ]: non-standard residue; d: D form. The star is where a group is joined. X1 = O=C(O)CCCCCCCCCCCCCCCCCCC(=O)NCC1CCC(C(=O)*)CC1; γGlu = O=C(O)[C@H](CCC(=O)[*:2])N[*:1]; εLys = N[C@@H](CCCCN[*:1])C(=O)[*:2]; AEEA = NCCOCCOCC(=O)O; Aib = CC(C)(N)C(=O)O

Tests used:
Type in all cases: cell-based
human Gcg receptor = biological target: T1, human Gcg receptor (Homo sapiens, UniProt P47871); assay: In vitro functional potency (CRE luciferase; whole cells), human GcgR; settings: BHK CRE luc2P hGcgR whole cells; Table 2; read-out: hGcgR CRE Luc EC50
T1 construct: expressed in transfected cells; host or cells: BHK cells (parent line BHKTS13) containing CRE luciferase

human GIP receptor = biological target: T2, human GIP receptor (Homo sapiens, UniProt P48546); assay: In vitro functional potency (CRE luciferase; whole cells), human GIPR; settings: BHK CRE luc2P hGIPR whole cells; Table 2; read-out: hGIPR CRE Luc EC50
T2 construct: expressed in transfected cells; host or cells: BHK cells (parent line BHKTS13) containing CRE luciferase
T2 sequence (P48546 22-466): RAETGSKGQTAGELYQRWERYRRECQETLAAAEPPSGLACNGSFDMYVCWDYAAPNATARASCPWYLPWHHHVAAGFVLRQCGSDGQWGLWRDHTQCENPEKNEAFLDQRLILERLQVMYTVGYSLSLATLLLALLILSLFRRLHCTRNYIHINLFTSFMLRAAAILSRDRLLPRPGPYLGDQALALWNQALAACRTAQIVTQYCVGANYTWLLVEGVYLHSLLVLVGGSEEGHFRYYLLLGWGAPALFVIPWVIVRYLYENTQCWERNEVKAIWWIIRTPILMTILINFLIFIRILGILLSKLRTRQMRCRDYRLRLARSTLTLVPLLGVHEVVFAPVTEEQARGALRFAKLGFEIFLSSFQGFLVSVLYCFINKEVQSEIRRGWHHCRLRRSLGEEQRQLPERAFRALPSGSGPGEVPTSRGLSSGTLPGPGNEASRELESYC

human GLP-1 receptor = biological target: T3, human GLP-1 receptor (Homo sapiens, UniProt P43220); assay: In vitro functional potency (CRE luciferase; whole cells), human GLP-1R; settings: BHK CRE luc2P hGLP-1R whole cells; Table 2; read-out: hGLP-1R CRE Luc EC50
T3 construct: expressed in transfected cells; host or cells: BHK cells (parent line BHKTS13) containing CRE luciferase
T3 sequence (P43220 24-463): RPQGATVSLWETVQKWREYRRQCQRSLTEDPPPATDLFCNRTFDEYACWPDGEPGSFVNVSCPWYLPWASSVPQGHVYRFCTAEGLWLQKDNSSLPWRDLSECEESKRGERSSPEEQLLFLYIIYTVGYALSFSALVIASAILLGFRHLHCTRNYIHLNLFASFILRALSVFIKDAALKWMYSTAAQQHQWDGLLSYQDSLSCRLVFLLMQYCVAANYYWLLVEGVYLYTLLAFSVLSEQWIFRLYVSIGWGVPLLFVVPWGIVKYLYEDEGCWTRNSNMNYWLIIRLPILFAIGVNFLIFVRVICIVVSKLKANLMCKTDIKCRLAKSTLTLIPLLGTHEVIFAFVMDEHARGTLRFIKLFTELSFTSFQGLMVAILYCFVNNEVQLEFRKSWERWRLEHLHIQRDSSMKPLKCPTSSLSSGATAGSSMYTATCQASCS

T1 sequence (P47871 26-477): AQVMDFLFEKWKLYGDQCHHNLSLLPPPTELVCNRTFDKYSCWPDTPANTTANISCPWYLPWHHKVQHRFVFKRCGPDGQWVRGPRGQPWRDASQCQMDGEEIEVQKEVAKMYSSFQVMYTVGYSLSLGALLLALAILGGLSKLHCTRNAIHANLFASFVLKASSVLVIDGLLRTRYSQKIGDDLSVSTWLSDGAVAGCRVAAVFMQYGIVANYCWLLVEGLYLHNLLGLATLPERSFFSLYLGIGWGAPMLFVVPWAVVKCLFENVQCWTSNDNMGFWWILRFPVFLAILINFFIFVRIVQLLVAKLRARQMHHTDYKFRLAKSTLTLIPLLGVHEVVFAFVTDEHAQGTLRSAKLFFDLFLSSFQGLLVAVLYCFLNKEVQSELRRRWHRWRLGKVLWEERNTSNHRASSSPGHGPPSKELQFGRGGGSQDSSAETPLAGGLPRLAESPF

Compound | EC50 (human Gcg receptor) | EC50 (human GIP receptor) | EC50 (human GLP-1 receptor)
CC[C@H](C)[C@H](NC(=O)[C@H](CO)NC(=O)[C@H](Cc1ccc(O)cc1)NC(=O)[C@H](CC(=O)O)NC(=O)[C@H](CO)NC(=O)[C@@H](NC(=O)[C@H](Cc1ccccc1)NC(=O)[C@@H](NC(=O)CNC(=O)[C@H](CCC(N)=O)NC(=O)C(C)(C)NC(=O)[C@@H](N)Cc1ccc(O)cc1)[C@@H](C)O)[C@@H](C)O)C(=O)N[C@@H](Cc1ccc(O)cc1)C(=O)N[C@@H](CC(C)C)C(=O)N[C@@H](CCC(=O)O)C(=O)N[C@@H](CCCCNC(=O)[C@@H](N)CCCCNC(=O)[C@@H](N)CCCCNC(=O)CC[C@H](NC(=O)C1CCC(CNC(=O)CCCCCCCCCCCCCCCCCCC(=O)O)CC1)C(=O)O)C(=O)N[C@@H](CCC(N)=O)C(=O)N[C@@H](C)C(=O)N[C@@H](C)C(=O)NC(C)(C)C(=O)N[C@@H](CCC(=O)O)C(=O)N[C@@H](Cc1ccccc1)C(=O)N[C@H](C(=O)N[C@@H](CC(N)=O)C(=O)N[C@@H](Cc1c[nH]c2ccccc12)C(=O)N[C@@H](CC(C)C)C(=O)N[C@@H](CC(C)C)C(=O)N[C@@H](C)C(=O)NCC(=O)NCC(=O)N1CCC[C@H]1C(=O)N[C@@H](CO)C(=O)N[C@@H](CO)C(=O)NCC(=O)N[C@@H](C)C(=O)N1CCC[C@H]1C(=O)N1CCC[C@H]1C(=O)N1CCC[C@H]1C(=O)N[C@@H](CO)C(N)=O)C(C)C (stereo partly shown) [Compound No. 13] (H-Y[Aib]QGTFTSDYSIYLEK([εLys-εLys-γGlu-X1])QAA[Aib]EFVNWLLAGGPSSGAPPPS-NH2; N-terminus assumed) | 157 pM | 2.1 pM | 2.8 pM
CC[C@H](C)[C@H](NC(=O)[C@H](CO)NC(=O)[C@H](Cc1ccc(O)cc1)NC(=O)[C@H](CC(=O)O)NC(=O)[C@H](CO)NC(=O)[C@@H](NC(=O)[C@H](Cc1ccccc1)NC(=O)[C@@H](NC(=O)CNC(=O)[C@H](CCC(N)=O)NC(=O)C(C)(C)NC(=O)[C@@H](N)Cc1ccc(O)cc1)[C@@H](C)O)[C@@H](C)O)C(=O)N[C@@H](Cc1ccc(O)cc1)C(=O)N[C@@H](CC(C)C)C(=O)N[C@@H](CC(=O)O)C(=O)N[C@@H](CCCCNC(=O)COCCOCCNC(=O)COCCOCCNC(=O)CC[C@H](NC(=O)C1CCC(CNC(=O)CCCCCCCCCCCCCCCCCCC(=O)O)CC1)C(=O)O)C(=O)N[C@@H](CCC(N)=O)C(=O)N[C@@H](C)C(=O)N[C@@H](C)C(=O)NC(C)(C)C(=O)N[C@@H](CCC(=O)O)C(=O)N[C@@H](Cc1ccccc1)C(=O)N[C@H](C(=O)N[C@@H](CC(N)=O)C(=O)N[C@@H](Cc1c[nH]c2ccccc12)C(=O)N[C@@H](CC(C)C)C(=O)N[C@@H](CC(C)C)C(=O)N[C@@H](C)C(=O)NCC(=O)NCC(=O)N1CCC[C@H]1C(=O)N[C@@H](CO)C(=O)N[C@@H](CO)C(=O)NCC(=O)N[C@@H](C)C(=O)N1CCC[C@H]1C(=O)N1CCC[C@H]1C(=O)N1CCC[C@H]1C(=O)N[C@@H](CO)C(N)=O)C(C)C (stereo partly shown) [Compound No. 6] (H-Y[Aib]QGTFTSDYSIYLDK([AEEA-AEEA-γGlu-X1])QAA[Aib]EFVNWLLAGGPSSGAPPPS-NH2) |  | 7.7 pM | 5.1 pM
CC[C@H](C)[C@H](NC(=O)[C@H](CO)NC(=O)[C@H](Cc1ccc(O)cc1)NC(=O)[C@H](CC(=O)O)NC(=O)[C@H](CO)NC(=O)[C@@H](NC(=O)[C@H](Cc1ccccc1)NC(=O)[C@@H](NC(=O)CNC(=O)[C@H](CCC(N)=O)NC(=O)C(C)(C)NC(=O)[C@@H](N)Cc1ccc(O)cc1)[C@@H](C)O)[C@@H](C)O)C(=O)N[C@@H](Cc1ccc(O)cc1)C(=O)N[C@@H](CC(C)C)C(=O)N[C@@H](CCC(=O)O)C(=O)N[C@@H](CCCCNC(=O)COCCOCCNC(=O)COCCOCCNC(=O)CC[C@H](NC(=O)C1CCC(CNC(=O)CCCCCCCCCCCCCCCCCCC(=O)O)CC1)C(=O)O)C(=O)N[C@@H](CCC(N)=O)C(=O)N[C@@H](C)C(=O)N[C@@H](C)C(=O)NC(C)(C)C(=O)N[C@@H](CCC(=O)O)C(=O)N[C@@H](Cc1ccccc1)C(=O)N[C@H](C(=O)N[C@@H](CC(N)=O)C(=O)N[C@@H](Cc1c[nH]c2ccccc12)C(=O)N[C@@H](CC(C)C)C(=O)N[C@@H](CC(C)C)C(=O)N[C@@H](C)C(=O)NCC(=O)NCC(=O)N1CCC[C@H]1C(=O)N[C@@H](CO)C(=O)N[C@@H](CO)C(=O)NCC(=O)N[C@@H](C)C(=O)N1CCC[C@H]1C(=O)N1CCC[C@H]1C(=O)N1CCC[C@H]1C(=O)N[C@@H](CO)C(N)=O)C(C)C (stereo partly shown) [Compound No. 12] (H-Y[Aib]QGTFTSDYSIYLEK([AEEA-AEEA-γGlu-X1])QAA[Aib]EFVNWLLAGGPSSGAPPPS-NH2; N-terminus assumed) |  | 1.8 pM | 2.4 pM
